{
  "source": "paper PMC12136788",
  "binders": {"B1": {"name": "chr9:135205225:135205226:-_ENSG00000107290_ENST00000224140|hu_mus|FALSE|FALSE (ssRNA)", "RNA": "GGGAGUUCUACAGUCCGACGAUCUGUAGAAGUUGAAUCCCCAAAAGUGCUAUAUUGGGGCAUUUUGAAUUUUAUGUUUCUAAUUAUUUGUUUCAAACACAUUUGUAACUCAUGGGUUUCUUGACCAGUCAAUUGCCAACCCAGCAACAGAGGAUUGAGCAUCA"}, "B2": {"name": "chr5:102612083:102612084:+_ENSG00000181751_ENST00000319933|hu_mus|FALSE|FALSE (ssRNA)", "RNA": "GGGAGUUCUACAGUCCGACGAUCUAGAUUGAGGUAGUCCAGAGAUUUGGAGUGAGCCCUCUUACCUUUAAGAAGACAUAGAGGCAAGGGCCCAUGGAGGGCCUUAUAAGGUUCAUAAGGUAAGGGUUUGGUGCACUUGUCUCCCAACAGAGGAUUGAGCAUCA"}, "B3": {"name": "chr9:45784209:45784210:-_ENSMUSG00000003131_ENSMUST00000172450|mus_mus|motif|central (ssRNA)", "RNA": "GGGAGUUCUACAGUCCGACGAUCGGAGUCCCCCACAAACAGCACAUCUGGUUCUUUGUCUUUACAGUCCAGAACAAACCGGUUAUGCUGAGACAUCCACCUGUCAUCUCCUUGAAUAUCUUCUGCGGCAUGUGGAAUAGCUGCCAACAGAGGAUUGAGCAUCA"}, "B4": {"name": "chr14:76904430:76904431:+_ENSMUSG00000022010_ENSMUST00000022587|mus_mus|mus_mus_mus_hu_True|18_18 (ssRNA)", "RNA": "GGGAGUUCUACAGUCCGACGAUCUGCAGCCAAAAACACCCUCGUGGAAAAAAAGAGGGAACACCAGCAGCCUUGUAUAAGCUAGAUAAAAUCUUCUGGCUUUCCGCAGCCCAGGGAGUGAGAACGGACGGCAGCCCUAAUUUACAACAGAGGAUUGAGCAUCA"}, "B5": {"name": "chr7:54823571:54823572:-_ENSG00000132432_ENST00000352861|hu_mus|hu_hu_hu_mus_False|8_88 (ssRNA)", "RNA": "GGGAGUUCUACAGUCCGACGAUCUCCCAUGAUAGCAAAUCCUAUAGCUGUUGCCAUGGCAAUCUUCUGGAAUUCUUUUCUGUCGGGUUUGGUGCAUCUUUUAACCAGCCGAAUUGAGUCCUUUACAAACUGCCGACUGGGCUCCAACAGAGGAUUGAGCAUCA"}, "B6": {"name": "166731569_166740681_71_5pUTR_ENSMUSG00000002718_ENSMUST00000002790|mouse|control|control (ssRNA)", "RNA": "GGGAGUUCUACAGUCCGACGAUCAUGACUCUGAAUCUCGUGGGGACGCCGAGACCGAGGAGGGAAUCCCAAGCGAGAGCUGCAGCCGACACUACCCCACUCCAGCCGCUGCUCCGCCUCACAUUCAAACCCUGGCAAAAUGGCCAACAGAGGAUUGAGCAUCA"}, "B7": {"name": "chr11:102767452:102767453:-_ENSMUSG00000051378_ENSMUST00000021311|mus_mus|motif|central (ssRNA)", "RNA": "GGGAGUUCUACAGUCCGACGAUCGGUGAGGAAGGCAGGCUAGGGACUCUUGGCAUUGGCAGCUGUAGACAAGAGAAGGCGGUUGGCGAAUCAGAACAAUCGUGGAUGCCAGGAGUCCCUCGUGGUCAGAACACCCAGUUAAUACAACAGAGGAUUGAGCAUCA"}, "B8": {"name": "93805626_93805746_2619_3pUTR_ENSMUSG00000059474_ENSMUST00000107854|mouse|control|control (ssRNA)", "RNA": "GGGAGUUCUACAGUCCGACGAUCGCAAUAAAACGUCAGCGAGCACAAUUAAUGACCCCUUCCGUGAUCUACAUGGUGAUGAGCCCUCUGUGAGGGGUUCAGUUGCAUAUUUUCGCAGCAAAGGAAGCUGGAGAUGUGACUGGCCAACAGAGGAUUGAGCAUCA"}, "B9": {"name": "chr11:55313332:55313333:+_ENSMUSG00000018583_ENSMUST00000018727|mus_hu|FALSE|FALSE (ssRNA)", "RNA": "GGGAGUUCUACAGUCCGACGAUCUCUUUAAAAGUCCGUUAUUCCUAAAAUAUCAUUCCACAAAAUUGGAAGUGAAAGACUAAAGGUCAGGAAAGGGAAGAGAGGGAGAGGGAGCACACACCAUUAACACACAAAAAAAGUAAACAACAGAGGAUUGAGCAUCA"}, "B10": {"name": "chr19:8913615:8913616:-_ENSMUSG00000071658_ENSMUST00000096259|mus_hu|mus_mus_mus_hu_False|18_88 (ssRNA)", "RNA": "GGGAGUUCUACAGUCCGACGAUCAGGGUACCAAAACCUUCUGCCUGAGAUAGGUGCCCCACCCAGUAGGGAGUUGCAGCUGAAAGUAUCUGAUGCAGAAGCAGUGACUAUACGAAAGGUCACUAGAGGGGAGGGCCAGGCCAGCAACAGAGGAUUGAGCAUCA"}, "B11": {"name": "chr6:40197388:40197389:+_ENSMUSG00000057716_ENSMUST00000061740|mus_mus|FALSE|FALSE (ssRNA)", "RNA": "GGGAGUUCUACAGUCCGACGAUCGCCUUGUCAGUUUGGAUGGCACCUCAGUUUGGGUGCUAGCCUCUAAGAUAGAUAGCUAUUUUGGGAUUCAUGGCCUUGAAGAUCAAGAGGAAAGGGACGAGAAUGGAAAGAGUCAAGAGUCAACAGAGGAUUGAGCAUCA"}, "B12": {"name": "81681878_81681998_755_CDS_ENSMUSG00000048546_ENSMUST00000050467|mouse|control|control (ssRNA)", "RNA": "GGGAGUUCUACAGUCCGACGAUCCUUCUCGCCAAUCUGGUAGGAUACCUCGAAAGGGUCAAUCCAGACACUCAGCUCUUCGGGCACGUUGGCACGCACAUCCUCCACAGCUAGGCCGCUCCGCUUGGCAGCCAGCUCCACCACCAACAGAGGAUUGAGCAUCA"}, "B13": {"name": "chr2:48026839:48026840:+_ENSG00000116062_ENST00000540021|hu_hu|hu_hu_hu_mus_False|58_58 (ssRNA)", "RNA": "GGGAGUUCUACAGUCCGACGAUCAUAGUGAGCCACUAGCGUCCUAAAUCUGGAACAGUGGCGGUCAUCCGAAAACUGACCUAUGAAAAACUUGCCCAGUGAAGUGUCCACAAAGCAAACACCAUACACACGAGUGUGACCAGACAACAGAGGAUUGAGCAUCA"}, "B14": {"name": "46090527_46090647_3540_3pUTR_ENSMUSG00000015882_ENSMUST00000045586|mouse|control|control (ssRNA)", "RNA": "GGGAGUUCUACAGUCCGACGAUCAGUUUUUUUUGUUUGUUUGUUUUUUGUCACUGCAAAGACAAGGUUGAGCUUGAGAAGUUUGUAGCUGUCUUGCAUUCGUUUAGUCAUUAGUAUUGGACCUUGCAUGUUUUCUUAGAUUAACAACAGAGGAUUGAGCAUCA"}, "B15": {"name": "chr4:144460044:144460045:+_ENSG00000153147_ENST00000283131|hu_mus|hu_hu_hu_mus_False|18_88 (ssRNA)", "RNA": "GGGAGUUCUACAGUCCGACGAUCACGGUCCAUAGCCUGAAGAUCAACUUGGGGAUUCCAAUCUGAGUCAUAUAAAAUGACUACAUCAGCAGUUGCAAGAUUGAUGCCCAGACCACCAGCACGCGUGCUUAGCAUAAAUACAAACAACAGAGGAUUGAGCAUCA"}, "B16": {"name": "39667289_39668368_1577_CDS_ENSG00000130669_ENST00000435673|human|control|control (ssRNA)", "RNA": "GGGAGUUCUACAGUCCGACGAUCGGGCUCUCCGUCCACCAUCUCAAUCACCAUUAUCCCCAGCGACCAGAUGUCUACCUCUGGCCCGUAGGGAAGGCGGGAGAUGAGCUCUGGGGCCAUCCAGUAGGGCGUGCCGACCAGCGACAACAGAGGAUUGAGCAUCA"}, "B17": {"name": "chr3:183368427:183368428:+_ENSG00000114796_ENST00000454652|hu_hu|motif|central (ssRNA)", "RNA": "GGGAGUUCUACAGUCCGACGAUCAACCAACAUUUCUCGGCUUUCCCUGUGGUCAUUACAAAACAUAGCUCUGAAGUAGCUGCGGCAGGCUGAGAGCACAGCUCUAUGGCAAGGAAAUUCUUUUCCUUCCACACAAAUGAUAACCAACAGAGGAUUGAGCAUCA"}, "B18": {"name": "chrX:132779699:132779700:+_ENSMUSG00000042712_ENSMUST00000048687|mus_hu|FALSE|FALSE (ssRNA)", "RNA": "GGGAGUUCUACAGUCCGACGAUCAAAUUCCCGCAAGUUUGACUCCUUCCACGGGCCUCAGGGACCACCGCCUGCGCUGCUGAAGGAAGCUGGUAUCCAGACGGGAACAAGGACCAGAUUACCAGGACUUCUGCACACGUCGACCAACAGAGGAUUGAGCAUCA"}, "B19": {"name": "2694593_2697051_1340_CDS_ENSG00000101596_ENST00000320876|human|control|control (ssRNA)", "RNA": "GGGAGUUCUACAGUCCGACGAUCAAUAUAGUAGUGAUAAAUAUGCGCUAACUGUCGUGUCCAAAGGUGGAAAUAAUUUUUCAAGUACUGUAUGUGUUCUGGUUGUACCCCUGUGAUAACCACAGCAGUAAAGCUAUCUUUUUCCAACAGAGGAUUGAGCAUCA"}, "B20": {"name": "72380402_72380522_416_3pUTR_ENSMUSG00000037674_ENSMUST00000093820|mouse|control|control (ssRNA)", "RNA": "GGGAGUUCUACAGUCCGACGAUCGGAGGAGGAGGGGGAGGAAGAGGAGGAAGGAAGGAAGCUGGAUAAGCUAGGCCUAUACCCCAGGGCUCGAGUGAGUCGCUUUCUCCGGCCGCCUGAGGGACAUCCCCGGGGAGACCGCGCCAACAGAGGAUUGAGCAUCA"}, "B21": {"name": "chr5:50689391:50689392:+_ENSG00000016082_ENST00000230658|hu_mus|motif|central (ssRNA)", "RNA": "GGGAGUUCUACAGUCCGACGAUCAAUAGGACUGGCUACCAUGCUGUUGGGUGUAUCUGGGAGCUGCGAGGACAUCGAUGCGGCUUCACUGCCAGUAGAAUUAGAGCCUGGUCCUCCUUCUGAAAAAUUGACCAGUUGCUGAAACAACAGAGGAUUGAGCAUCA"}, "B22": {"name": "chr18:56819859:56819860:+_ENSG00000166562_ENST00000588875|hu_mus|hu_hu_hu_mus_True|38_88 (ssRNA)", "RNA": "GGGAGUUCUACAGUCCGACGAUCAACCUUGAUUACUCUGUGAACUAUUGGAAUGUCUCUUCCUUCAACCUUAAAAACAACUAUUUCACCAGCUCUGAUUGGGUCUUCCCGGAAAUUCGUGAGGAACAGCAGAUCUCCUCUGUGCAACAGAGGAUUGAGCAUCA"}},
  "note": "The other results are listed elsewhere or left out.",
  "data": [
    {"molecular_target": "T1, UNK ZnF1-3 (human, UniProt Q9C0B0 31-174)", "T1 sequence": "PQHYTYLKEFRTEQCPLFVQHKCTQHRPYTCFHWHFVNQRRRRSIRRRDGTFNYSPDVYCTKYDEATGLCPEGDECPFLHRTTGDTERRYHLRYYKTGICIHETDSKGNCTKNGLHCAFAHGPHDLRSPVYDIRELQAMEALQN", "assay": "nsRBNS (natural sequence RNA bind-n-seq); RBNS binding buffer (assumed for nsRBNS): 25 mM Tris pH 7.5, 150 mM KCl, 3 mM MgCl2, 0.01% Triton X-100, 500 ug/ml BSA, 20 U/ml SUPERase-In, 4 C; UNK is unkempt and MSI1 is Musashi-1; names of the RNAs are library labels; protein concentration not given here; high values mean tight binding", "units": {"binding signal": "enrichment R"}, "values": [
      {"binder": "B1", "binding signal": 0.834},
      {"binder": "B2", "binding signal": 0.593},
      {"binder": "B3", "binding signal": 0.52},
      {"binder": "B4", "binding signal": 1.77},
      {"binder": "B5", "binding signal": 0.637},
      {"binder": "B6", "binding signal": 1.61},
      {"binder": "B7", "binding signal": 1.07},
      {"binder": "B8", "binding signal": 1.43},
      {"binder": "B9", "binding signal": 3.03},
      {"binder": "B10", "binding signal": 1.21},
      {"binder": "B11", "binding signal": 1.53},
      {"binder": "B12", "binding signal": 0.957},
      {"binder": "B13", "binding signal": 1.23},
      {"binder": "B14", "binding signal": 0.36},
      {"binder": "B15", "binding signal": 1.27},
      {"binder": "B16", "binding signal": 0.701},
      {"binder": "B17", "binding signal": 1.23},
      {"binder": "B18", "binding signal": 1.59},
      {"binder": "B19", "binding signal": 1.46},
      {"binder": "B20", "binding signal": 1.5},
      {"binder": "B21", "binding signal": 1.52},
      {"binder": "B22", "binding signal": 0.84}
    ]}
  ]
}
